PubChem BioAssay AID488969 (Vanderbilt High Throughput Screening Facility, 2010)
Over roughly 110,000 compounds, “z-score” has its median near -0.1; the highest 2% begin near 2. Some of the results follow. The source made the active and inactive calls.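 The calls were made as follows: active = z-score in the third read window above 3 or below -3; inactive = the rest.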

target: Metabotropic glutamate receptor 8 (Rattus norvegicus) (UniProt P70579); assay: rat mGluR8 modulators via GIRK flux, primary screen, cell-based, thallium flux, HTS (AID 488969); details: HEK293 rat mGluR8, GIRK (G protein-gated inwardly rectifying potassium channel) thallium flux, FluoZin2; at 10 µM; stronger effect = higher value; submaximal glutamate (EC20) added with thallium
Chain of UniProt P70579 (P70579 whole entry, looked up): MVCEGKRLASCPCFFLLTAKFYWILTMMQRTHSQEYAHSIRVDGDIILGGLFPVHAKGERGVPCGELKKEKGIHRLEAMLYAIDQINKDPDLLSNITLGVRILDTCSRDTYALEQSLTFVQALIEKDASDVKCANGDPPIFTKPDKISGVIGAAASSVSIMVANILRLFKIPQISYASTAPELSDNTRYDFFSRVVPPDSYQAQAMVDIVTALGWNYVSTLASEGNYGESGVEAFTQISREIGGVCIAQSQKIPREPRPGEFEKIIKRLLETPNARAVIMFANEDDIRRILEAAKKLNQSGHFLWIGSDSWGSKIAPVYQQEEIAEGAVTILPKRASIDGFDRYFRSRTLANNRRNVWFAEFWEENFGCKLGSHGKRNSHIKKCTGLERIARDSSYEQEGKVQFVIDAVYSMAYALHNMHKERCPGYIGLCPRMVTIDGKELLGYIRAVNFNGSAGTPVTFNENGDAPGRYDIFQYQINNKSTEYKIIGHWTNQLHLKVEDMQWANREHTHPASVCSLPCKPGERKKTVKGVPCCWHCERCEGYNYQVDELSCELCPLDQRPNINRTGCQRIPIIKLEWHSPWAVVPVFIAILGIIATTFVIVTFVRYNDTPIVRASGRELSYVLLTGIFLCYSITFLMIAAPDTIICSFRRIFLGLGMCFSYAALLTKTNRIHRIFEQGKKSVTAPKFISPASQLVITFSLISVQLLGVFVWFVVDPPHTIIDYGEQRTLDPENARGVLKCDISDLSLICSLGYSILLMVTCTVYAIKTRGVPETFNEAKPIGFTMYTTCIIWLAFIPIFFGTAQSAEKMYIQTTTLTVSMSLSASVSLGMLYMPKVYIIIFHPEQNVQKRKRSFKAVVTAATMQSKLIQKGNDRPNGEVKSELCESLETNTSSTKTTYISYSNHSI

| SMILES | z-score |
| --- | --- |
| c1cncc(-c2nnc(-c3cccnc3)nn2)c1 | -0.0178 |
| c1ccc(-n2nnnc2-n2nnc3ccccc32)cc1 | -0.315 |
| Cc1c(Cl)cccc1NC(=O)CSCc1cc(=O)[nH][nH]1 | 0.139 |
| CCCCn1c(SCC(=O)c2ccccc2)nc2c1c(=O)[nH]c(=O)n2C | -0.0394 |
| COc1ccc(S(=O)(=O)N2CCCC(C(=O)NCc3ccncc3)C2)cc1 (stereo not drawn) | -0.0814 |
| Cc1ccc2nc(-c3sc4nc(C)cc(C)c4c3N)[nH]c2c1 | -0.162 |
| COc1ccc(OC)c(C2C(C(=O)c3cccs3)=C(O)C(=O)N2c2cc(C)on2)c1 (stereo not drawn) | active: -4.72 |
| Cc1ccc(C)n1NC(=O)c1ccc(Cl)cc1 | 0.186 |
| Cn1c(=O)c2c(ncn2CC(=O)Nc2ccc(N3CCOCC3)cc2)n(C)c1=O | 0.202 |
| COc1ccc2cc(C)c(SCC(=O)Nc3cc(C)on3)nc2c1 | -0.00116 |
| Cc1cc(Oc2cc(N)cc([N+](=O)[O-])c2)ccc1Cl | 0.0378 |
| CN(C)c1nccc(N(Cc2ccccc2)Cc2ccccc2)c1C#N | 0.368 |
| CC(CNC(=O)c1cc(Cl)ccc1[N+](=O)[O-])NC(=O)c1cc(Cl)ccc1[N+](=O)[O-] (stereo not drawn) | -0.0709 |
| Cc1ccc(-n2nnnc2-c2cnn(-c3cccc(F)c3)c2C(F)(F)F)cc1 | 0.0555 |
| O=C1CC(c2ccccc2)C(=O)N1c1cccc(O)c1 (stereo not drawn) | 0.454 |
| Cc1ccc(NC(=O)CN2CCN(CCN=CC3=C(O)CC(c4ccccc4)CC3=O)CC2)cc1 (stereo not drawn) | -0.283 |
| COC(=O)c1cc(OC)c(OC)cc1NC(=O)c1c(-c2ccccc2)noc1C | -0.341 |
| CCc1nnc(NS(=O)(=O)c2ccc(NC(=S)NC(=O)/C=C/c3ccc(C(C)C)cc3)cc2)s1 | -0.159 |
| COc1ccc(N2C(=O)C3CCCN3C2c2ccc(C)cc2)cc1Cl (stereo not drawn) | -0.144 |
| CC(=O)c1cnc2c(-c3ccc(Cl)cc3)cnn2c1C | 0.0303 |
| O=C1NCCCc2c1no[n+]2[O-] | -0.937 |
| CCCCCCn1c(SCC(C)C)nc2c1c(=O)[nH]c(=O)n2C | -0.998 |

| SMILES | z-score |
| --- | --- |
| CCc1cc(/C(Cc2cscn2)=N\O)c(O)cc1O | -0.0483 |
| CC/C(C)=C1\SC(N2CCN(C(C)=O)CC2)=NC1=O | -0.255 |
| COC(=O)CSC1=C(C#N)C(c2cccc(F)c2)CC(=O)N1 (stereo not drawn) | -0.27 |
| C=CC[C@H]1CC(Cc2ccccc2)=C[C@H](CC=C)N1 | 0.926 |
| Cn1c(=O)n(CCCOc2ccc(Cl)cc2)c2ccccc21 | 0.163 |
| COc1cc(OC)cc(C(=O)N[C@H](C(=O)OCC(=O)Nc2ccc(F)c(F)c2)C(C)C)c1 | 0.0207 |
| O=C(Nc1cccc(Cl)c1)C1CCCN(S(=O)(=O)c2cnc[nH]2)C1 (stereo not drawn) | -0.0369 |
| Cc1ccc2cccnc2c1NC(=S)NC(=O)c1ccccc1 | 0.544 |
| CC(C)n1nnnc1SCC(=O)NNC(=O)C1CCCCC1 | -0.128 |
| CCn1cc(/C=N\NC(=O)c2csc3ccccc23)c(C)n1 | -0.112 |
| C#CCSC1=C(C#N)C(c2cccs2)C(C(=O)OCC)=C(C)N1 (stereo not drawn) | -0.176 |
| COc1ccc(-c2nc3ccccn3c2C=O)cc1 | -0.0294 |
| Cc1c(N=C2SCC(=O)N2/N=C/c2ccccc2)c(=O)n(-c2ccccc2)n1C | -0.023 |
| CC1(C)CC(=O)C(C=NCCN2CCN(C(=O)CC3CCCC3)CC2)=C(O)C1 | 0.544 |
| CCc1ccc(NC(=S)NC2CC3CCC(C2)N3Cc2ccco2)cc1 (stereo not drawn) | 0.699 |
| Cc1ccc(N2C(=O)c3ccccc3NC2C(C)Cc2ccc3c(c2)OCO3)cc1 (stereo not drawn) | -0.0122 |
| Cc1cc([N+](=O)[O-])nn1CC(=O)Nc1nccs1 | 0.292 |
| Cc1nnn(C23CC4CC(CC(CC(=O)Nc5ccc(C)c(C)c5)(C4)C2)C3)n1 | -0.252 |
| O=C(O)[C@@H]1CCCN1C(=O)c1ccco1 | 0.101 |
| O=C(NC(=S)Nc1ccccc1O)c1ccc(-c2ccc(Cl)cc2)o1 | -0.262 |
| Cc1ccc(NC(=O)COC(=O)CCc2c[nH]c(=O)[nH]2)cc1 | 0.58 |
| NC(=S)N=Nc1c(O)n(Cc2ccc(F)cc2)c2ccccc12 | 1.76 |

| SMILES | z-score |
| --- | --- |
| C=CCn1c(SCC(=O)OCC)nc2cc(C(=O)NCc3ccco3)ccc2c1=O | -0.24 |
| C/C(=N\NC(=O)Cn1c(-c2ccccn2)nc2ccccc21)c1ccccc1 | 0.577 |
| COC(=O)CC1C(=O)NCCN1C(=O)Nc1ccc(Cl)cc1 (stereo not drawn) | -0.00409 |
| O=C(CSc1ccc(-c2nc3ccccc3[nH]2)cn1)Nc1ccc(S(=O)(=O)N2CCCC2)cc1 | -0.35 |
| COc1cc(/C=N/NC(=O)C(=O)N2CCCC2)ccc1O | -0.205 |
| CCOC(=O)C(NCc1ccc(F)cc1)(NC(=O)c1ccccc1)C(F)(F)F (stereo not drawn) | -0.631 |
| CCOC(=O)c1nnn(-c2nonc2N)c1-c1ccc(C)cc1 | 0.821 |
| Cc1ccc(N(CC(O)CN2CCCC2)S(=O)(=O)c2ccccc2)cc1 (stereo not drawn) | -0.209 |
| Cc1cc(=O)oc(C)c1C(=O)OCC(=O)c1ccc(Br)cc1 | -0.578 |
| COc1cccc(-c2cc(C(=O)O)no2)c1 | -0.677 |
| COc1ccc(CCNS(=O)(=O)c2cccs2)cc1 | 0.403 |
| CC(C)C(C(=O)Nc1ccc2c(c1)OCO2)N1C(=O)c2ccccc2C1=O (stereo not drawn) | -0.367 |
| CCn1c(COc2ccccc2)nnc1SCC(=O)C(C)(C)C | -0.408 |
| CC(=O)c1ccc2c(c1)C1C=CCC1C(c1ccncc1)N2 (stereo not drawn) | -0.00724 |
| Cn1c(=O)n(CCc2ccccc2)c(=O)c2c1ncn2Cc1ccccc1 | -0.501 |
| O=c1c2ccccc2nc2c3ccccc3c(NCc3ccco3)nn12 | 0.342 |
| O=C(/C=C/c1cccc([N+](=O)[O-])c1)NCCSCc1ccccc1Cl | -0.15 |
| CCOc1cc(C2C(C#N)=C(N)OC(C)=C2C(C)=O)c(Br)c(Br)c1OC(C)C (stereo not drawn) | 0.215 |
| O=C(c1ccc(CNc2c(N3CCCC3)c(=O)c2=O)cc1)N1CCc2ccccc2C1 | 0.0853 |
| Cc1c(CCOC(=O)C23CC4CC(CC(C4)C2)C3)sc[n+]1Cc1ccccc1 | -0.337 |
| CN(C)S(=O)(=O)c1cccc(NC(=O)COC(=O)C2(c3ccccc3F)CCCC2)c1 | -0.26 |
| COc1cc(CNC2CCCC2)cc(Cl)c1OCc1ccccc1Cl | 0.0424 |

| SMILES | z-score |
| --- | --- |
| CCN1c2ccccc2N(C)C1(C)c1ccccc1 (stereo not drawn) | 0.0532 |
| CCOC(=O)N1CCC(N2C(=O)c3ccccc3C2Nc2ccc3c(C)cc(=O)oc3c2)CC1 (stereo not drawn) | active: 4.01 |
| CCCNC(=O)CS(=O)(=O)Cc1nc(-c2cccc(OC)c2)oc1C | 0.16 |
| O=c1[nH][nH]c(C(F)(F)F)c1C=NCc1cccc(Cl)c1 | -0.222 |
| CN(C)c1ccc(N/C(=N\S(=O)(=O)c2cccs2)c2ccccc2)cc1 | -0.167 |
| Cc1cccc2sc(NC(=O)CN3C(=O)c4ccccc4C3=O)nc12 | -0.16 |
| O=C1CCCCC(=O)c2ccccc2N1 | 2.21 |
| CC(C)OC(=O)c1ccc(NC(=O)Cn2c(-c3nonc3N)nc3ccccc32)cc1 | -0.0806 |
| COc1ccc(OC)c(NC(=S)NN2CCN(C)CC2)c1 | -0.267 |
| CC1(C)NC(=O)N(CCCCSc2ccc(Cl)cc2)C1=O | 0.189 |
| Cc1ccc(NS(=O)(=O)c2cc(C(=O)NCCSc3ccc(C)cc3)ccc2C)cc1 | 0.000328 |
| COc1ccc2ccccc2c1C1CC(=O)N2CN(C3CCCCC3)CSC2=C1C#N (stereo not drawn) | 0.16 |
| COC(=O)c1ccc(NC(=O)C2CCCCC2C(=O)O)cc1 (stereo not drawn) | -0.0344 |
| CN1CCN(C(=O)/C=C/c2ccc3c(c2)OCO3)CC1 | -0.453 |
| Cc1cc(C)n(CC(O)Cn2c3ccc(Cl)cc3c3cc(Cl)ccc32)c(=O)n1 (stereo not drawn) | -0.0985 |
| CC1CN(Cc2cc(=O)[nH]c(C(C)C)n2)CC(C)O1 (stereo not drawn) | -0.125 |
| O=C(CN(C(=O)Cn1nnc(-c2cccs2)n1)c1ccc2c(c1)OCCO2)NCC1CCCO1 (stereo not drawn) | 0.138 |
| Cc1ccc(-c2cc(C(F)(F)F)nc(SCC(=O)c3cccc([N+](=O)[O-])c3)n2)cc1 | -0.37 |
| CCC(=O)N(C)CCc1cc2c(c(OC)c1/C=N/NC(=O)c1ccccc1O)OCO2 | 0.0186 |
| CCSc1c(C(=O)NC)ccc2c1C(=O)c1ccccc1C2=O | -0.414 |
| CCOc1ccc(-c2nnn(CC(=O)NCCc3c[nH]c4ccccc34)n2)cc1 | -0.385 |
| COc1ccc(C(=O)CCN2CCCCCC2)cc1 | -0.333 |

| SMILES | z-score |
| --- | --- |
| NC(=O)c1ccc(-n2nnnc2SCC(=O)Nc2ccc(N3CCOCC3)c(Cl)c2)cc1 | 0.232 |
| N#CCc1ccc(C(=O)c2ccccc2)s1 | -0.167 |
| O=C1CC(c2ccco2)CC(O)=C1C=Nc1cc(Cl)ccc1O (stereo not drawn) | 0.193 |
| Cc1cccc(OCCCC(=O)NCCc2ccccc2)c1 | -0.23 |
| C=CCc1ccccc1OCC(=O)OCCNC(=O)c1cccnc1 | -0.995 |
| Cc1ccc(NC(=O)CSc2nc3ccccc3c3nc(CCn4cncc4C)nn23)c(C)c1 | 0.57 |
| COc1cccc(OCCCCCN2CCOCC2)c1 | -0.337 |
| O=C(O)C1CCCCC1C(=O)Nc1ccc(F)c(F)c1 (stereo not drawn) | -0.293 |
| CCN(Cc1ccccc1)S(=O)(=O)c1ccc(S(=O)(=O)N(Cc2cccc(OC)c2)CC2CCCO2)cc1 (stereo not drawn) | -0.202 |
| CO/N=C/NC(=O)C1=NOC(CNc2ncc(C(F)(F)F)cc2Cl)C1 (stereo not drawn) | -0.0269 |
| CC(C)(C)NC(=O)CSc1nc(O)cc(=O)n1-c1ccccc1F | -0.203 |
| COc1ccc(S(=O)(=O)N2CCOCC2)cc1C(C)C | -0.0686 |
| Cc1[nH]c2ccc(F)cc2c(=O)c1SC(F)(F)C(F)C(F)(F)F (stereo not drawn) | 0.655 |
| NS(=O)(=O)c1ccc(NN=C2CCCCC2)c([N+](=O)[O-])c1 | -0.071 |
| Cc1ccc(Cc2c(C)nc3nc(SCC(=O)NCc4ccco4)nn3c2C)cc1 | 0.432 |
| Cn1c(SCC(=O)N/N=C/c2ccc([N+](=O)[O-])s2)nnc1-c1ccccc1 | -0.166 |
| COc1ccc(-c2cnnc(N/N=C/c3ccc(O)c(O)c3)n2)cc1 | -0.31 |
| COc1ccc(NC(=O)N2CCN(c3cccc(C(F)(F)F)c3)CC2)cc1 | 0.558 |
| COc1cc(C(c2sc3nc(C)nn3c2O)N2CC(C)CC(C)C2)cc(OC)c1OC (stereo not drawn) | -0.308 |
| COc1ccc(CN(C(=O)CSc2nnc(-c3c[nH]c4ccccc34)o2)c2ccc(F)cc2)cc1OC | 0.675 |
